± gives the standard deviation of the averaged measurements. Over roughly 33,000 sequences, “E-score (dimensionless, -0.5 to 0.5)” has its median near -0.046; the highest 2% begin near 0.36. The list shows a part of the results.

The subject of the assay is T1, SpTbr T-box DNA-binding domain (GST fusion).
T1 sequence: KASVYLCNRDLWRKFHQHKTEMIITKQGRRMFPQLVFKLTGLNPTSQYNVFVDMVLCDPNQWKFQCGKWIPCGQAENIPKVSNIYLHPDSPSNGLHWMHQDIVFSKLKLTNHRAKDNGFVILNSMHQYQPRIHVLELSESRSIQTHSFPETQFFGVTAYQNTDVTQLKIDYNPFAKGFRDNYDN
As to the kind of experiment: PBM E-score of 8-mer (E-score (dimensionless, -0.5 to 0.5)); Tbr is Tbrain of the sea star Patiria miniata (Pm) or the sea urchin Strongylocentrotus purpuratus (Sp); higher = stronger binding preference; most listed sequences are background and not binding sites. The conditions noted are these: the construct has about 5 more residues each side. The gist of the method:
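Each ungapped 8-mer received an enrichment E-score from the Universal PBM Analysis Suite, averaged over duplicate arrays. The proteins were Tbr T-box DNA-binding domains, covering the whole T-box plus about five flanking residues, fused to GST and expressed in BL21 E. coli at 20 °C before glutathione affinity purification. Universal Agilent oligonucleotide arrays were made double-stranded by primer extension and incubated with 200 nM protein in PBS (pH 7.5). The arrays were then scanned and quantified, and every 8-mer was scored from probe intensities.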
Turning to CAGCAAAA, the “PBM E-score of 8-mer” value is -0.19 ± 0.1.

For CTCTTACC, the “PBM E-score of 8-mer” value was -0.252 ± 0.0034.

Consider CACCAACG, for which the “PBM E-score of 8-mer” value is 0.188 ± 0.025.

For the sequence AAAGCTAC, the “PBM E-score of 8-mer” value is 0.0151 ± 0.032.

With CTCCTCTA, the “PBM E-score of 8-mer” value came to 0.1039 ± 0.00011.

Consider CTTAAAAC, for which the “PBM E-score of 8-mer” value was -0.195 ± 0.026.

Consider CATTAAAG, for which the “PBM E-score of 8-mer” value is -0.135 ± 0.015.

For CGCCGGCG, the “PBM E-score of 8-mer” value is 0.1618 ± 0.00064.

With CGCTAGAC, the “PBM E-score of 8-mer” value was found to be 0.0718 ± 0.013.

In the case of AATCGGGT, the “PBM E-score of 8-mer” value is -0.129 ± 0.062.

For the sequence ACAACACC, the “PBM E-score of 8-mer” value is 0.424 ± 0.011.

As to GAAGTACC, the “PBM E-score of 8-mer” value is -0.351 ± 0.049.

Turning to GTCTCGCA, the “PBM E-score of 8-mer” value is 0.256 ± 0.013.

In the case of GGCCCCCC, the “PBM E-score of 8-mer” value was -0.274 ± 0.021.

Consider GAAATAGA, for which the “PBM E-score of 8-mer” value is -0.169 ± 0.075.

Take CAGTCGTA: the “PBM E-score of 8-mer” value was -0.204 ± 0.044.

As to ACATAGGC, the “PBM E-score of 8-mer” value is -0.0404 ± 0.014.

For the sequence CCGATGTA, the “PBM E-score of 8-mer” value is -0.27 ± 0.043.

As for CTTCTACC, the “PBM E-score of 8-mer” value is -0.18 ± 0.017.

In the case of ATAGCCAC, the “PBM E-score of 8-mer” value amounted to 0.0868 ± 0.081.

TATAGAAA: the “PBM E-score of 8-mer” value was -0.286 ± 0.067.

Turning to AAAGTACC, the “PBM E-score of 8-mer” value is -0.222 ± 0.062.

In the case of AGACCGTC, the “PBM E-score of 8-mer” value is -0.121 ± 0.029.

On to CCTCCGCG, for which the “PBM E-score of 8-mer” value turned out to be 0.00477 ± 0.025.

GTTCGCAA: the “PBM E-score of 8-mer” value turned out to be 0.354 ± 0.015.

With AATATCAG, the “PBM E-score of 8-mer” value was 0.0275 ± 0.026.

Take ACTATAGT: the “PBM E-score of 8-mer” value came to 0.123 ± 0.1.

CTGCGGGC: the “PBM E-score of 8-mer” value was -0.0289 ± 0.01.

Consider CTGCGGCC, for which the “PBM E-score of 8-mer” value is -0.274 ± 0.004.

Turning to GCGTCACC, the “PBM E-score of 8-mer” value is 0.327 ± 0.042.

Consider CAGAAACG, for which the “PBM E-score of 8-mer” value is -0.0415 ± 0.054.

As for CTGAAATA, the “PBM E-score of 8-mer” value is -0.0579 ± 0.062.

AACCTTCC: the “PBM E-score of 8-mer” value is -0.169 ± 0.048.

For the sequence ATCGAAAA, the “PBM E-score of 8-mer” value turned out to be 0.0599 ± 0.027.

Turning to AAAGTTTA, the “PBM E-score of 8-mer” value is -0.03569 ± 0.00033.

Regarding TAATTACA, the “PBM E-score of 8-mer” value was 0.0205 ± 0.0062.

As to CGGGCGCA, the “PBM E-score of 8-mer” value is 0.0118 ± 0.04.

As for GATGAAAC, the “PBM E-score of 8-mer” value is -0.101 ± 0.046.

For AAGGCCTG, the “PBM E-score of 8-mer” value was -0.2793 ± 0.0016.

With AGCGGGGC, the “PBM E-score of 8-mer” value is -0.0819 ± 0.0051.

As for ACCATACG, the “PBM E-score of 8-mer” value is -0.201 ± 0.029.

AGCGAATG: the “PBM E-score of 8-mer” value was -0.0252 ± 0.031.

Consider GGTTTACA, for which the “PBM E-score of 8-mer” value came to 0.216 ± 0.048.

Regarding AAACATGC, the “PBM E-score of 8-mer” value was -0.0605 ± 0.018.

Regarding AGTAACGC, the “PBM E-score of 8-mer” value is 0.215 ± 0.011.

ATTAGCTG: the “PBM E-score of 8-mer” value was -0.0902 ± 0.0076.

For ATCCAAAA, the “PBM E-score of 8-mer” value is -0.199 ± 0.0023.

Turning to GCTTCAGA, the “PBM E-score of 8-mer” value is -0.177 ± 0.045.

As for CCATAAGA, the “PBM E-score of 8-mer” value is -0.134 ± 0.088.

For CTCATGAG, the “PBM E-score of 8-mer” value was -0.197 ± 0.09.

With GAACTAGC, the “PBM E-score of 8-mer” value is 0.0258 ± 0.039.

In the case of CCTAGGCC, the “PBM E-score of 8-mer” value was -0.0372 ± 0.013.

For the sequence AGATTCAG, the “PBM E-score of 8-mer” value was -0.2384 ± 0.0019.

CAAAGGGG: the “PBM E-score of 8-mer” value was -0.0321 ± 0.014.

Consider AGCCAGCG, for which the “PBM E-score of 8-mer” value is -0.0843 ± 0.057.
